Test results taken from PubChem BioAssay AID504339 (National Center for Advancing Translational Sciences (NCATS), 2011).
In all, about 390,000 compounds went through this assay and about 17,000 (4.4%) were called active. The inconclusive results got no clear call from the source; some entries with a clear call stand among them for comparison. The call rests on the fitted dose curve; in most records, active means well fitted inhibition curve with a large enough effect; inconclusive means small, poorly fitted or top-dose-only effect; inactive means no such curve, though single readings can be large or run the other way. Potencies beside an inconclusive call are fits to weak or partial responses and may not hold up.

Molecular target: Lysine-specific demethylase 4A (Homo sapiens) (UniProt O75164)
Assay: qHTS Assay for Inhibitors of JMJD2A-Tudor Domain; further: nearly all actives have a fitted effect of over 50% in size
Conditions: AlphaScreen JMJD2A-Tudor / H3K4me3 peptide binding; series mostly up to 114 µM
Potency means the concentration at half of the fitted maximal effect; tags describe the fitted curve by direction and shape.

Chain of UniProt O75164 (O75164 whole entry, looked up, the tested form may be a part): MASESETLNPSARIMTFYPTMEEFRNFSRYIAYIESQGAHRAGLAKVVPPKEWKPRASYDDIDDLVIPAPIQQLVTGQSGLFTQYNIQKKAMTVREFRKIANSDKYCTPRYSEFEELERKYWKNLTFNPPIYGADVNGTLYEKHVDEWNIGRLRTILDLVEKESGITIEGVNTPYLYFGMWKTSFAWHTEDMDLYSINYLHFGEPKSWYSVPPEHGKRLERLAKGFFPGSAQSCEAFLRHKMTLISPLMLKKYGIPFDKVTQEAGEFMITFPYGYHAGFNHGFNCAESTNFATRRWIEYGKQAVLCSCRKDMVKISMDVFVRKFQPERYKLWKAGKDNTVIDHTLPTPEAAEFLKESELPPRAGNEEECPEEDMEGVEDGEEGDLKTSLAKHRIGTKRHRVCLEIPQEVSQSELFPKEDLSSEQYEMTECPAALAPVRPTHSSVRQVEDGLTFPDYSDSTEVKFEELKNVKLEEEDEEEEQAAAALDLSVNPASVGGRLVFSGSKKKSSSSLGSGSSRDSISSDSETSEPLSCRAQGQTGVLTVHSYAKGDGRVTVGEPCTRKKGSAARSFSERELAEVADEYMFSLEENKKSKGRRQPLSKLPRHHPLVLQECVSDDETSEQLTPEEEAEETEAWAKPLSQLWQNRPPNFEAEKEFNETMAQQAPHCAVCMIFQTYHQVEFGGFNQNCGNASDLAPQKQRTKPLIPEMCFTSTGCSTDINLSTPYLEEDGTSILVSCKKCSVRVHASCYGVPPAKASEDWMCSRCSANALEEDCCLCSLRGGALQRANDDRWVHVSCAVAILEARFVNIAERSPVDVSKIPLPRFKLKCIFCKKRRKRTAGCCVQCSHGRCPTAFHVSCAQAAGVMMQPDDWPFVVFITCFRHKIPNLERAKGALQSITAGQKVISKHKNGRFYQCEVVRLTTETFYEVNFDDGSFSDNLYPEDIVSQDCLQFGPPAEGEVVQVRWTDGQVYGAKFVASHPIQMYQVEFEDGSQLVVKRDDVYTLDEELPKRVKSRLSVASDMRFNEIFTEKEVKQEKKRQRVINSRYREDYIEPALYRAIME

Row | SMILES | Potency
1 | O=C(c1cccs1)N1CCOCC1 | inconclusive: 89.1 µM [inhibitor, single point]
2 | N#C/C(=N\Nc1ccc(F)cc1)C(=N)N1CCCCC1 | inactive
3 | COc1ccc(C(=O)NC(=S)Nc2ccc(S(=O)(=O)Nc3cc(OC)nc(OC)n3)cc2)cc1 | inconclusive: 56.2 µM [inhibitor, partial curve]
4 | COc1ccccc1OCC(=O)NNC(=S)NC(=O)c1ccco1 | active: 79.4 µM
5 | COc1cc(NC(=S)NC(=O)c2ccccc2C)ccc1NC(=O)c1cccs1 | inconclusive: 56.2 µM [inhibitor, partial curve, poor fit]
6 | Cc1ccc(C)c(/C(O)=C2/C(=O)C(=O)N(CCN3CCOCC3)C2c2ccco2)c1 (stereo not drawn) | active: 79.4 µM
7 | COc1ccc(CCNC(=O)c2cc(S(=O)(=O)N(C)c3ccccc3)ccc2Cl)cc1 | inconclusive: 31.6 µM [inhibitor, single point]
8 | Cn1c(Cc2cccc3ccccc23)nnc1SCC(=O)N1CCN(c2ccccc2)CC1 | active: 79.4 µM
9 | CCS(=O)(=O)C1=NN2C(=N)/C(=C\c3ccc(OCCOc4cccc(OC)c4)c(OC)c3)C(=O)N=C2S1 | active: 56.2 µM
10 | COCCn1c(C)cc(C(=O)CSc2nc(C)cc(C)c2C#N)c1C | inconclusive: 50.1 µM [inhibitor, partial curve]
11 | Cc1cccc(C)c1OCc1cn(CC(=O)c2ccc(O)cc2)nn1 | active: 89.1 µM
12 | Cc1ccc(CN2CCSc3ccc(C(=O)NCCc4ccccc4)cc32)cc1 | inactive
13 | CCN(CC(=O)Nc1ccc(NC(C)=O)cc1)C(=O)CN1C(=O)NC(C)(c2ccc3ccccc3c2)C1=O (stereo not drawn) | inactive
14 | CC(=O)Nc1cc2nc(C)n(Cc3ccc([N+](=O)[O-])cc3)c2nc1C | inactive
15 | Cc1cc(C)cc(OCC(=O)Nc2ccc(N3CCCCC3)cc2)c1 | inactive
16 | CCN(CC)C(=O)Cn1c(=O)n(CCC(=O)Nc2ccc(F)cc2)c(=O)c2sccc21 | inconclusive: 35.5 µM [inhibitor, single point]
17 | O=C(Nc1ccc2c(c1)OCO2)c1cccc2c1C(=O)N(Cc1cccnc1)C2 | inconclusive: 50.1 µM [inhibitor, partial curve]
18 | CC1(CCc2ccccc2)NC(=S)N(c2ccccc2)N1 (stereo not drawn) | inconclusive: 70.8 µM [inhibitor, single point]
19 | Clc1cccc(CN2CCCCCC2)c1 | active: 39.8 µM
20 | C=CCc1ccc(OCCOCCNCCCC)c(OC)c1 | active: 3.98 µM
21 | FC(F)(F)Oc1ccc2c(c1)NC(c1ccncc1)=NC(c1cccs1)=N2 | inconclusive: 31.6 µM [inhibitor, partial curve]
22 | C=Cc1ccc(Cn2c(C)c(CNCCc3ccccc3C)c(C(=O)O)c2C)cc1 | inconclusive: 56.2 µM [inhibitor, partial curve]
23 | CN(C)S(=O)(=O)c1ccc(N2CCOCC2)c(C(=O)O)c1 | inactive
24 | O=C(c1cc2cc(Br)ccc2o1)N1CCCC1 | inactive
25 | Cc1ccc(NC(=O)CCSc2nc(-c3ccco3)cc(C(F)(F)F)n2)cc1F | inactive

Row | SMILES | Potency
26 | CCS(=O)(=O)n1nc(-c2ccco2)nc1SC | active: 28.2 µM
27 | CCOC(=O)N1CCN(C(=O)c2ccc3c(c2)NC(=O)/C(=C/c2ccccc2)S3)CC1 | inconclusive: 63.1 µM [inhibitor, partial curve, poor fit]
28 | Cc1ccc(CSc2nnc(-c3ccc4c(c3)OCO4)o2)cc1 | inactive
29 | O=[N+]([O-])c1ccccc1NC(=S)N/N=C/c1ccc(O)c(O)c1 | inconclusive: 4.47 µM [inhibitor, single point]
30 | O=C(CN1c2ccccc2Sc2ccccc21)N/N=C/c1ccc(Cl)cc1Cl | inconclusive: 56.2 µM [inhibitor, partial curve]
31 | CC1CCCCN1CCNc1nc(=S)[nH]c2ccccc12 (stereo not drawn) | inconclusive: 56.2 µM [inhibitor, partial curve]
32 | O=C1C=C(O)c2cccc(O)c2C1=O | inconclusive: 79.4 µM [inhibitor, partial curve]
33 | CCS(=O)(=O)C1=NN2C(=N)/C(=C\c3ccc(OS(=O)(=O)c4ccccc4)cc3)C(=O)N=C2S1 | inconclusive: 44.7 µM [inhibitor, partial curve]
34 | COc1ccc(O)c(C(=O)c2cc(C#N)c(=O)n(-c3ccc(Cl)cc3)c2)c1 | inconclusive: 50.1 µM [inhibitor, partial curve]
35 | Cc1cc(NC(=O)CS(=O)(=O)c2cn(Cc3ccc(F)cc3)c3ccccc23)no1 | inactive
36 | CC(=O)c1ccc2c(c1)C1C=CCC1C(c1cc3c(cc1Br)OCO3)N2 (stereo not drawn) | inactive
37 | CC(C)c1ccc(NC(=O)c2ccc(F)c(S(=O)(=O)N3CCc4ccccc4C3)c2)cc1 | inactive
38 | CCc1cc2c(=O)n(Cc3ccco3)c(SCC(=O)N(C)C3CCS(=O)(=O)C3)nc2s1 (stereo not drawn) | inactive
39 | Cc1ccc(NC(=O)c2cc([N+](=O)[O-])ccc2NCc2cccnc2)cc1Cl | inconclusive: 100 µM [inhibitor, single point]
40 | COc1cc(NC(=O)CSc2nnc3ccc(-c4ccncc4)nn23)cc(OC)c1 | inconclusive: 112 µM [inhibitor, partial curve, poor fit]
41 | Cc1nc2ccccc2n2c(O)c(CC(=O)O)cc12 | inconclusive: 79.4 µM [inhibitor, partial curve]
42 | COc1ccc(S(=O)(=O)N2CCCC(C(=O)NCC3CCCO3)C2)cc1OC (stereo not drawn) | inactive
43 | COC(=O)c1c(NC(C)=O)sc(Cc2ccccc2)c1C | inactive
44 | N#C/C(=C\c1ccc(Br)s1)C(=O)N1CCN(c2ccccc2)CC1 | inconclusive: 12.6 µM [inhibitor, full curve, poor fit]
45 | NNC(=O)c1cncn1-c1ccc(F)cc1 | inconclusive: 7.94 µM [inhibitor, partial curve]
46 | CC(=O)Nc1ccccc1NC(=O)c1cc(C)cc(C)c1 | active: 11.2 µM
47 | COC(=O)C1=CN(c2ccc(Cl)cc2)C=C(C(=O)OC)C1c1ccc([N+](=O)[O-])cc1 | inconclusive: 31.6 µM [inhibitor, partial curve]
48 | O=C(O)CCCNc1cc(N2CCN(C3CCCCC3)CC2)c2noc3c2c1C(=O)c1ccccc1-3 | active: 35.5 µM
49 | C/C(=N\NC(=O)c1ccccc1NC(=O)c1ccc(Cl)cc1)c1ccncc1 | inactive
50 | O=C(CCc1nnc2ccc(NCc3ccco3)nn12)Nc1ccccc1F | inconclusive: 50.1 µM [inhibitor, partial curve]

Row | SMILES | Potency
51 | N#CC1=C(N)N(c2cccc(Cl)c2)C2=C(C(=O)CCC2)C1c1cc(CN2CCOCC2)cs1 (stereo not drawn) | inactive
52 | Cc1ccc(CNC(=O)C2CCN(S(=O)(=O)c3cccs3)CC2)cc1 | active: 89.1 µM
53 | Cc1cc2ccccc2n1CCNC(=O)c1ccccc1 | inconclusive: 56.2 µM [inhibitor, partial curve]
54 | O=C(NC(=S)N1CCN(c2ccc(Cl)cc2[N+](=O)[O-])CC1)c1cccs1 | inconclusive: 50.1 µM [inhibitor, partial curve]
55 | CCOC(=O)c1c(NC(=O)CSc2nnc(-c3ccncc3)n2Cc2ccco2)sc(C)c1C | inconclusive: 56.2 µM [inhibitor, partial curve]
56 | Cc1ccccc1Nc1nc(-c2ccccc2)c(C(=O)Nc2cccnc2)s1 | inconclusive: 28.2 µM [inhibitor, partial curve]
57 | Cc1c(C)c2ccc(OCC(=O)Nc3ccc(N4CCC(C)CC4)cc3)cc2oc1=O | inconclusive: 39.8 µM [inhibitor, partial curve, poor fit]
58 | COCCNC(=O)Cn1cc(C(=S)N2CCOCC2)c2ccccc21 | inactive
59 | CC1=C([N+](=O)[O-])C(c2ccc(Cl)cc2)NC(=O)N1C (stereo not drawn) | active: 20 µM
60 | CC(=O)Nc1cc(C(=O)CSc2nnc(C3CC3)n2C2CC2)ccc1O | inconclusive: 50.1 µM [inhibitor, partial curve]
61 | COc1ccccc1C=NN=Cc1ccccc1OC | inconclusive: 89.1 µM [inhibitor, partial curve, poor fit]
62 | COC(=O)[C@H](Cc1ccccc1)NC(=O)NCCc1ccc(OC)cc1 | inactive
63 | Cc1noc(C)c1COC(=O)/C=C/c1ccc(Cl)cc1 | inconclusive: 25.1 µM [inhibitor, single point]
64 | CCOC(=O)c1[nH]cnc1C(=O)Nc1cccc(N)n1 | inconclusive: 15.8 µM [inhibitor, full curve]
65 | CC(C)c1ccc(NC(=O)c2ccc(NC3=NC4CS(=O)(=O)CC4S3)cc2)cc1 (stereo not drawn) | inactive
66 | O=C(CSc1c(Cl)cccc1Cl)N1CCC(c2nc3ccccc3s2)CC1 | inconclusive: 89.1 µM [inhibitor, single point]
67 | CCCNC(=O)Cn1sc2nc(C)cc(C)c2c1=O | active: 3.16 µM
68 | C/C(=N\N(c1ccccc1)c1ccccc1)c1ccc(O)cc1 | active: 39.8 µM
69 | COc1ccc(-n2c(C)cc(/C=C3\SC(=S)N(Cc4ccco4)C3=O)c2C)cc1 | inconclusive: 20 µM [inhibitor, partial curve]
70 | Cc1cc(-c2ccc(C(C)C)c(S(=O)(=O)N3CCN(c4ccccc4)CC3)c2)on1 | inconclusive: 31.6 µM [inhibitor, single point]
71 | Cc1ccc(C)c(OCc2cc(C(=O)N3CCOCC3)no2)c1 | inconclusive: 35.5 µM [inhibitor, full curve]
72 | CC(=O)OCC1=C(C(=O)O)N2C(=O)C(NC(=O)CCn3nc(C)c(Cl)c3C)C2SC1 (stereo not drawn) | inactive
73 | COc1ccc(C2(c3ccc(OC)cc3)NC(=O)N(CC(=O)N(C)C)C2=O)cc1 | inactive
